Results reported in the supplement of paper PMC10126150.
Values marked as one replicate rest on one cluster of the flow cell; about a third of the high ones do not repeat.

Test system: ATP
Test: switch fluorescence ratio, 500 uM ATP over buffer (Cy3 cluster intensity, sum of 5 cycles each) (fold (ratio)); higher = stronger signal-on switching upon ATP binding; sequences stand for … in TCGTCGGCAGCGTCAGATGTGTATAAGAGACAGTTTTTTTTTTTTTTTTTTTTTTTTT…TC
Conditions: aptamer strand: ATP DNA aptamer (quencher-CACCTGGGGGAGTATTGCGGAGGAAGG + anchor), 100 nM annealed; ATP concentration: 500 uM; one replicate
Method in brief: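 Five buffer/ATP imaging cycles were run on Cy3-labelled switching-strand clusters on a modified Illumina MiSeq flow-cell, with NaOH stripping and re-annealing between cycles. In each cycle, clusters annealed to 100 nM quencher-labelled ATP aptamer were imaged in selection buffer, then after 15 min with 500 uM ATP at 22 °C. Per cluster, the fluorescence ratio is summed target-cycle over summed buffer-cycle Cy3 intensity, averaged per switch-domain sequence. Only clusters within 100-1000 RFU were kept.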
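Also: ATP exposure 15 min at 22 °C before imaging.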

| Sequence | switch fluorescence ratio |
| --- | --- |
| TCAAGGTAGG | 1 |
| CTTTCCGGC | 1.09 |
| GCGGCAGAGG | 1 |
| ACACTGGATT | 1.04 |
| GAAAGTCTAA | 0.994 |
| ATTCGCAATT | 4.65 |
| TGCACGTTGA | 1 |
| CCACCGGGAA | 1.18 |
| TGCTGTGCCC | 0.986 |
| TCTGGCTTGG | 0.99 |
| ACATCAAAT | 1.05 |
| GGTGTAGTGG | 1.01 |
| ACGTCGCCGT | 0.859 |
| CCAGGGTGCG | 1.21 |
| AAACTTAGCC | 0.998 |
| TTTCACGTGA | 1.02 |
| GCGTATATTC | 1.07 |
| CTAGTGGTAC | 1.21 |
| AAGCGGGCTT | 0.989 |
| TTGGCTGGGC | 1.01 |
| TCTTCGAGGC | 1.07 |
| AAGAAAAGTT | 1.11 |
| GATGAGTTAT | 0.992 |

| Sequence | switch fluorescence ratio |
| --- | --- |
| GTCTTTGATC | 0.981 |
| ACTGATATTG | 1.05 |
| ATGCCGAATT | 1.03 |
| CGTCTGTGTA | 1.06 |
| GAGGCACAGT | 1 |
| TTTACACGAC | 1.16 |
| AATGGCTCA | 1.01 |
| TGCGCCCTAA | 1.01 |
| AGCGGTGCGG | 1.03 |
| ACTGGGTTA | 1.02 |
| GCGTTAAGGT | 1.01 |
| AAGGCTTCTC | 1.03 |
| GCATGAATTG | 1.05 |
| GATCAAATA | 0.977 |
| CTGCCACAGA | 1.03 |
| TGCCTGTGTT | 1.09 |
| GCAGACATCC | 1.08 |
| ACCGTCCAGA | 1.02 |
| CCGAGGGGTA | 1.34 |
| ACTGTCGGGA | 1 |
| CAATTGTTAG | 1.09 |
| CCGATAGCGG | 1.34 |
| TGTAATTGGA | 1.02 |

| Sequence | switch fluorescence ratio |
| --- | --- |
| ACTCCCAACA | 2.58 |
| GACGGACAAT | 1.53 |
| TGGGGCACA | 1.02 |
| TAGGCATATC | 4.11 |
| GAAGTTTTAG | 0.969 |
| TTAGGATTGT | 0.977 |
| CGCTATCATG | 1.04 |
| GTGGCCTAGG | 1.1 |
| CACAAGATCG | 1.01 |
| AAGCTATCTG | 0.998 |
| AAAACGTACG | 1.27 |
| TTGCCCGATC | 0.98 |
| TTTGTAAAT | 1.13 |
| TTACGTTAGA | 1.07 |
| ACCTCTTGTG | 1.01 |
| CTCCAACGGT | 1.07 |
| CGCGGCTACT | 1.75 |
| TGTGTTACG | 1.01 |
| GTTCTCTAAT | 1.03 |
| AAACTGACTT | 1.1 |
| TAAGCAGGGT | 0.965 |
| TCCGGTGAAC | 1.75 |
| GCCTCATCGA | 1.05 |

| Sequence | switch fluorescence ratio |
| --- | --- |
| GCGAAGAAGA | 0.993 |
| ATTGCTGTGG | 1.01 |
| CTGCGTAATA | 3.68 |
| TGTTGTTGG | 1.03 |
| GATCTATGCA | 0.992 |
| TTATCTCATG | 1.02 |
| TGACTGGAAC | 1.04 |
| GAAGTAGGTA | 0.997 |
| AATTGTATTT | 0.999 |
| CGTTAAATCC | 0.987 |
| CATACTCTTA | 0.981 |
| AAATGTGAT | 1.03 |
| TATTAGCTAA | 0.976 |
| AGTCCCAAAT | 0.992 |
| CCACGTTGGG | 0.999 |
| AGTTAGGATG | 0.978 |
| CGGAAACCCC | 1.4 |
| CTCCCGCGTT | 1.23 |
| CAATGTGCGC | 0.957 |
| TTCATTTTAT | 1.03 |
| CAGACCATTT | 0.969 |
| GGTAGCTCTG | 1.03 |
| CTAGCGGCGT | 1.02 |

| Sequence | switch fluorescence ratio |
| --- | --- |
| CCAGGACAGC | 1.09 |
| GTGTGTTTCC | 1.06 |
| CCACGGCTCG | 1.02 |
| GACCGTATCT | 1.08 |
| AAATCACCG | 1.05 |
| AAACGCGACG | 1.05 |
| CTGGAGGGG | 0.967 |
| TAATGATCCA | 0.965 |
| AAACTGGCGA | 0.954 |
| ATTAGTGAAT | 0.975 |
| GCAGAACGGA | 0.976 |
| CTGTCAAAG | 0.968 |
| CCATTGCCAA | 1.03 |
| GCCATGGCGA | 1.01 |
| GAGACCAGCT | 1.01 |
| AACTCCCGTC | 1.04 |
| CGGAGTGTT | 1.76 |
| AACATTGTGA | 1.02 |
| CTTCACCGTA | 1 |
| GTGGGCCGTT | 1.08 |
| TTCCTATTTG | 1.03 |
| CACTTGTGAT | 0.978 |
| AATGTGGTTC | 0.986 |

| Sequence | switch fluorescence ratio |
| --- | --- |
| TAGTTCTTT | 0.95 |
| TCTGACCGTC | 1.06 |
| TGCACGAAG | 1.03 |
| AGCGGCATCC | 1.07 |
| GGGCAGGGAT | 0.993 |
| TGAGCTCCAG | 1.01 |
| GCTAGCAGCT | 1 |
| TTAAAGTCTA | 0.938 |
| GTATCTAGAC | 1 |
| ATGATGCTGT | 0.995 |
| AACGGGTAAA | 1.16 |
| GCGTGTGGAT | 1.01 |
| GCGCCGGATG | 1.01 |
| CCGTGGTGAC | 1.77 |
| TGGGTGT | 1.08 |
| AGTAACTAGG | 1.03 |
| ACAACACCGA | 1.21 |
| AAAGTTGATA | 0.951 |
| ACTGCAGCGA | 1.18 |
| ACCCGACGTT | 1.29 |
| CGTCTAGTTG | 0.94 |
| TAAATGACAT | 1.02 |
| CTCGCCGTTG | 0.942 |

| Sequence | switch fluorescence ratio |
| --- | --- |
| GACGAAAACG | 1.04 |
| ATCCCTACGG | 1.01 |
| GTGCAAGTAA | 1.06 |
| CAGCCCGCCG | 1.03 |
| TGGGAACTTA | 0.985 |
| CGTTAATGGC | 0.982 |
| CTTGGCATCC | 1.12 |
| GGACCGGAGC | 1.85 |
| ACATTCATTT | 0.979 |
| AACTGGACAA | 1.07 |
| CCTAAGTTAG | 1 |
| TGGGGTATGC | 0.993 |
| CGTCCACCAT | 1.25 |
| AGCCGGGCAT | 0.966 |
| AAATCTGCTT | 1.02 |
| CTATCCCATG | 1.07 |
| AATCGGGTAC | 0.997 |
| TTAGGCGTTA | 0.951 |
| GCCCTATGCG | 1.01 |
